Measured values reported in the supplement of paper PMC8728848.
Some of the results follow.

Columns and labels:
Assay in all cases: glycan array binding signal (z-score within array); higher = stronger binding
Details in all cases: glycan notation: IUPAC condensed, linker removed
[1] = target: Gal(b1-3)GlcNAc(b1-2)Man(a1-3)[Gal(b1-3)GlcNAc(b1-2)Man(a1-6)]Man(b1-4)GlcNAc(b1-4)[Fuc(a1-6)]GlcNAc
Summary of the method: (§1)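 Negative Z-scores can be read as non-binding. The Z-score is calculated within each array and then averaged across arrays of one protein sequence at different concentrations or buffers and across linkers. Arrays, 3228 in all, were curated from the Consortium for Functional Glycomics database and kept only where the protein sequence was available.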

[2] = target: Gal(b1-3)GlcNAc(b1-2)Man(a1-3)[GlcNAc(b1-4)][Gal(b1-3)GlcNAc(b1-2)Man(a1-6)]Man(b1-4)GlcNAc(b1-4)GlcNAc
Summary of the method: as §1

[3] = target: Gal(b1-3)GlcNAc(b1-2)[Gal(b1-3)GlcNAc(b1-6)]Man(a1-6)[Gal(b1-3)GlcNAc(b1-2)Man(a1-3)]Man(b1-4)GlcNAc(b1-4)GlcNAc
Summary of the method: as §1

[4] = target: Gal(b1-3)GlcNAc(b1-3)Gal(b1-3)GlcNAc
Summary of the method: as §1

[5] = target: Gal(b1-3)GlcNAc(b1-3)Gal(b1-4)Glc
Summary of the method: as §1

[6] = target: Gal(b1-3)GlcNAc(b1-3)Gal(b1-4)GlcNAc
Summary of the method: as §1

[7] = target: Gal(b1-3)GlcNAc(b1-3)Gal(b1-4)GlcNAc(b1-2)Man(a1-3)[Gal(b1-3)GlcNAc(b1-3)Gal(b1-4)GlcNAc(b1-2)Man(a1-6)]Man(b1-4)GlcNAc(b1-4)GlcNAc
Summary of the method: as §1

[8] = target: Gal(b1-3)GlcNAc(b1-3)Gal(b1-4)GlcNAc(b1-2)[Gal(b1-3)GlcNAc(b1-3)Gal(b1-4)GlcNAc(b1-6)]Man(a1-6)[Gal(b1-3)GlcNAc(b1-3)Gal(b1-4)GlcNAc(b1-2)Man(a1-3)]Man(b1-4)GlcNAc(b1-4)[Fuc(a1-6)]GlcNAc
Summary of the method: as §1

[9] = target: Gal(b1-3)GlcNAc(b1-3)Gal(b1-4)GlcNAc(b1-3)Gal(b1-4)GlcNAc(b1-2)[Gal(b1-3)GlcNAc(b1-3)Gal(b1-4)GlcNAc(b1-3)Gal(b1-4)GlcNAc(b1-6)]Man(a1-6)[Gal(b1-3)GlcNAc(b1-3)Gal(b1-4)GlcNAc(b1-3)Gal(b1-4)GlcNAc(b1-2)Man(a1-3)]Man(b1-4)GlcNAc(b1-4)[Fuc(a1-6)]GlcNAc
Summary of the method: as §1

[10] = target: Gal(b1-3)GlcNAc(b1-3)Gal(b1-4)GlcNAc(b1-6)[Gal(b1-3)GlcNAc(b1-3)]Gal(b1-4)Glc
Summary of the method: as §1

[11] = target: Gal(b1-3)GlcNAc(b1-3)Gal(b1-4)[Fuc(a1-3)]GlcNAc
Summary of the method: as §1

[12] = target: Gal(b1-3)GlcNAc(b1-3)Gal(b1-4)[Fuc(a1-3)]GlcNAc(b1-6)[Gal(b1-3)GlcNAc(b1-3)]Gal(b1-4)Glc
Summary of the method: as §1

[13] = target: Gal(b1-3)GlcNAc(b1-3)GalNAc
Summary of the method: as §1

[14] = target: Gal(b1-3)GlcNAc(b1-6)Gal(b1-4)GlcNAc
Summary of the method: as §1

[15] = target: Gal(b1-3)GlcNAc(b1-6)GalNAc
Summary of the method: as §1

[16] = target: Gal(b1-3)GlcNAc(b1-6)[Gal(b1-3)]GalNAc
Summary of the method: as §1

Gal(b1-3)GlcNAc6S = target: Gal(b1-3)GlcNAc6S
Summary of the method: as §1

[17] = target: Gal(b1-3)[Fuc(a1-4)]GlcNAc
Summary of the method: as §1

[18] = target: Gal(b1-3)[Fuc(a1-4)]GlcNAc(b1-2)Man
Summary of the method: as §1

[19] = target: Gal(b1-3)[Fuc(a1-4)]GlcNAc(b1-2)Man(a1-3)[Gal(b1-3)[Fuc(a1-4)]GlcNAc(b1-2)Man(a1-6)]Man(b1-4)GlcNAc(b1-4)[Fuc(a1-6)]GlcNAc
Summary of the method: as §1

[20] = target: Gal(b1-3)[Fuc(a1-4)]GlcNAc(b1-3)Gal(b1-3)[Fuc(a1-4)]GlcNAc
Summary of the method: as §1

[21] = target: Gal(b1-3)[Fuc(a1-4)]GlcNAc(b1-3)Gal(b1-4)[Fuc(a1-3)]GlcNAc
Summary of the method: as §1

[22] = target: Gal(b1-3)[Fuc(a1-4)]GlcNAc(b1-6)GalNAc
Summary of the method: as §1

[23] = target: Gal(b1-3)[GlcNAc(b1-6)]GalNAc
Summary of the method: as §1

[24] = target: Gal(b1-3)[Neu5Ac(a2-6)]GalNAc
Summary of the method: as §1

[25] = target: Gal(b1-3)[Neu5Ac(a2-6)]GlcNAc(b1-4)Gal(b1-4)Glc
Summary of the method: as §1

[26] = target: Gal(b1-3)[Neu5Ac(b2-6)]GalNAc
Summary of the method: as §1

Gal(b1-4)Gal = target: Gal(b1-4)Gal
Summary of the method: as §1

[27] = target: Gal(b1-4)GalNAc(a1-3)[Fuc(a1-2)]Gal(b1-4)GlcNAc
Summary of the method: as §1

[28] = target: Gal(b1-4)GalNAc(b1-3)[Fuc(a1-2)]Gal(b1-4)GlcNAc
Summary of the method: as §1

Gal(b1-4)Glc = target: Gal(b1-4)Glc
Summary of the method: as §1

Gal(b1-4)Glc6S = target: Gal(b1-4)Glc6S
Summary of the method: as §1

Gal(b1-4)GlcNAc = target: Gal(b1-4)GlcNAc
Summary of the method: as §1

[29] = target: Gal(b1-4)GlcNAc(a1-6)Gal(b1-4)GlcNAc
Summary of the method: as §1

Gal(b1-4)GlcNAc(b1-2)Man = target: Gal(b1-4)GlcNAc(b1-2)Man
Summary of the method: as §1

[30] = target: Gal(b1-4)GlcNAc(b1-2)Man(a1-3)Man(b1-4)GlcNAc(b1-4)GlcNAc
Summary of the method: as §1

[31] = target: Gal(b1-4)GlcNAc(b1-2)Man(a1-3)[Gal(b1-4)GlcNAc(b1-2)Man(a1-6)]Man(b1-4)GlcNAc(b1-4)GlcNAc
Summary of the method: as §1

B1: Cohesin-marm-DC-ASGPR-CRD (protein)
chain: LDITSHHHHHHDDLDAVRIKVDTVNAKPGDTVRIPVRFSGIPSKGIANCDFVYSYDPNVLEIIEIEPGDIIVDPNPDKSFDTAVYPDRKIIVFLFAEDSGTGAYAITKDGVFATIVAKVKEGAPNGLSVIKFVEVGGFANNDLVEQKTQFFDGGVNVGDTTEPATPTTPVTTPTTTDDLDAASCPINWVEHQGSCYWFSRSGKTWPEAERYCQLENTHLVVINSREEQNFVQAHLGSAYTWMGLSDPEGVWKWVDGTDYSSGFQNWKPGQPDDWQGHGLGGGEDCAHFHPDGRWNDDVCQRSYHWVCEAGLTQASQDSH
glycan array binding signal (z-score) [1]: -0.368
glycan array binding signal (z-score) [2]: -0.414
glycan array binding signal (z-score) [3]: -0.384
glycan array binding signal (z-score) [4]: -0.38
glycan array binding signal (z-score) [5]: -0.437
glycan array binding signal (z-score) [6]: -0.45
glycan array binding signal (z-score) [7]: -0.317
glycan array binding signal (z-score) [8]: 0.528
glycan array binding signal (z-score) [9]: 1.25
glycan array binding signal (z-score) [10]: -0.437
glycan array binding signal (z-score) [11]: -0.412
glycan array binding signal (z-score) [12]: -0.454
glycan array binding signal (z-score) [13]: -0.361
glycan array binding signal (z-score) [14]: -0.437
glycan array binding signal (z-score) [15]: 2.41
glycan array binding signal (z-score) [16]: -0.041
glycan array binding signal (z-score) (Gal(b1-3)GlcNAc6S): -0.447
glycan array binding signal (z-score) [17]: -0.386
glycan array binding signal (z-score) [18]: -0.337
glycan array binding signal (z-score) [19]: 0.166
glycan array binding signal (z-score) [20]: -0.413
glycan array binding signal (z-score) [21]: -0.454
glycan array binding signal (z-score) [22]: 2.67
glycan array binding signal (z-score) [23]: 1.3
glycan array binding signal (z-score) [24]: -0.426
glycan array binding signal (z-score) [25]: -0.447
glycan array binding signal (z-score) [26]: -0.446
glycan array binding signal (z-score) (Gal(b1-4)Gal): -0.304
glycan array binding signal (z-score) [27]: -0.449
glycan array binding signal (z-score) [28]: -0.432
glycan array binding signal (z-score) (Gal(b1-4)Glc): -0.43
glycan array binding signal (z-score) (Gal(b1-4)Glc6S): -0.377
glycan array binding signal (z-score) (Gal(b1-4)GlcNAc): -0.423
glycan array binding signal (z-score) [29]: -0.431
glycan array binding signal (z-score) (Gal(b1-4)GlcNAc(b1-2)Man): 3.13
glycan array binding signal (z-score) [30]: -0.38
glycan array binding signal (z-score) [31]: -0.385
